Measured values as given in patent US20260028383A1 (KINE BIOTECH, published 2026).

What was measured:
Assay in all cases: cell-based or functional assay
[1] = molecular target: T1, high-affinity IL-2R (containing the α/β/γc-subunits of the IL-2R) expressed on CTLL-2 cells (mouse, UniProt P01590 22-268; P16297 27-539; P34902 23-369)
T1 sequence (looked up) 1: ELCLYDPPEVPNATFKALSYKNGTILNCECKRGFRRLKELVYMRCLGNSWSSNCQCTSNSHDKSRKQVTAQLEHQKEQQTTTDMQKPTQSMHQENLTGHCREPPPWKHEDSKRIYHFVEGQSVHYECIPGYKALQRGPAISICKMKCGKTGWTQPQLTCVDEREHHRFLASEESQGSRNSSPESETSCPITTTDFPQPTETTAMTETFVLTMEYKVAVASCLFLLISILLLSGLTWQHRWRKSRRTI
T1 sequence (looked up) 2: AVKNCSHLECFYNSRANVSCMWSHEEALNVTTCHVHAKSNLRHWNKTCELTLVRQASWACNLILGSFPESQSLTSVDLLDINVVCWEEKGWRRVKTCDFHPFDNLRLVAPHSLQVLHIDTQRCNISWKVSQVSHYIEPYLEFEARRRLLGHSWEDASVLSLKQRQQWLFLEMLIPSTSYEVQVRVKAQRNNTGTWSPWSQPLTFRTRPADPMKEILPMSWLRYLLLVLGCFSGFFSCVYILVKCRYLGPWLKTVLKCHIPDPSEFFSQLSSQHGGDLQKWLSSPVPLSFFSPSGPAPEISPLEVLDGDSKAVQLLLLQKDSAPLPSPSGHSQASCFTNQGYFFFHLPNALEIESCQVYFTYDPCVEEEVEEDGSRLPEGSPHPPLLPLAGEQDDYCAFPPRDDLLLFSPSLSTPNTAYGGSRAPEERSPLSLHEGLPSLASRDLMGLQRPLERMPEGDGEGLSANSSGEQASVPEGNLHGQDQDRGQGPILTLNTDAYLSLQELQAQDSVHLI
T1 sequence (looked up) 3: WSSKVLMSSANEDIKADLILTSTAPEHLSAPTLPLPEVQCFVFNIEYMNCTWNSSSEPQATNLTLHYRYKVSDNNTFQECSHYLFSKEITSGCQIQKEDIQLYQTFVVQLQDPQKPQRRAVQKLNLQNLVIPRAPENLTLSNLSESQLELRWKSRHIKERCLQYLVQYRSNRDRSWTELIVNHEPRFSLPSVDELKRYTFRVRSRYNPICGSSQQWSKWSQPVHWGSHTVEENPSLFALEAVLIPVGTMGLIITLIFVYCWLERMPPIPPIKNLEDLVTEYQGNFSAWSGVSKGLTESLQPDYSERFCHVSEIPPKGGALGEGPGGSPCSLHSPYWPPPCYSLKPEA

[2] = molecular target: T2, intermediate-affinity IL-2R (containing the β/γc-subunits of the IL-2R) expressed on HH cells (human, UniProt P14784 27-551; P31785 23-369)
T2 sequence (looked up) 1: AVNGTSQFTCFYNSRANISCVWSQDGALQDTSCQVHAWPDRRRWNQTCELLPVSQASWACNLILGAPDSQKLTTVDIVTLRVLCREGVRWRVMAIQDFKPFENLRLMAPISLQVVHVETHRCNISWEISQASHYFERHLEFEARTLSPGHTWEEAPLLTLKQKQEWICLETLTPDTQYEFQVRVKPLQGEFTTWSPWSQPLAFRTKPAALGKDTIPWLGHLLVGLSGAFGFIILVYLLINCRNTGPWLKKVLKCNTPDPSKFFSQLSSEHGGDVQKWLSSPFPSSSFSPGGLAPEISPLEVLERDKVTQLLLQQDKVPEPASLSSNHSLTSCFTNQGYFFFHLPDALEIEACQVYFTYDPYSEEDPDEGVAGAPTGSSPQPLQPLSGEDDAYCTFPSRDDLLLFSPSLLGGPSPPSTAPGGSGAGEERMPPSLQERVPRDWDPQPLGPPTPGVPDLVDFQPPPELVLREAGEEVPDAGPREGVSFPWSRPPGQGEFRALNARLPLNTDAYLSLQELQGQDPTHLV
T2 sequence (looked up) 2: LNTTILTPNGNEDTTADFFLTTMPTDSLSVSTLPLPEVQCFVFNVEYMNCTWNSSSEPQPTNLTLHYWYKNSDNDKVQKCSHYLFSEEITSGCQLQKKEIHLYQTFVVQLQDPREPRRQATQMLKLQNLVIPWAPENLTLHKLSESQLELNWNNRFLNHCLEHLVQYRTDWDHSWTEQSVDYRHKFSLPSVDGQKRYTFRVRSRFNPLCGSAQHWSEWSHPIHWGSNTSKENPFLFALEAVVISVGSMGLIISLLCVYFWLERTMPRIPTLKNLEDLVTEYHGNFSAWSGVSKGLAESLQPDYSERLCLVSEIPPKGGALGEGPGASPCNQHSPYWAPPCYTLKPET

[3] = molecular target: T2, intermediate-affinity IL-2R (containing …); remark: listed apart in the source
[4] = molecular target: T2, intermediate-affinity IL-2R (containing …); remark: listed apart in the source
[5] = molecular target: T1, high-affinity IL-2R (containing the …); remark: listed apart in the source
[6] = molecular target: T1, high-affinity IL-2R (containing the …); remark: listed apart in the source
[7] = molecular target: T2, intermediate-affinity IL-2R (containing …); remark: listed apart in the source

B1: IL-2 variant IL-2_#7 (F42E, Y45G) (ligand)
chain: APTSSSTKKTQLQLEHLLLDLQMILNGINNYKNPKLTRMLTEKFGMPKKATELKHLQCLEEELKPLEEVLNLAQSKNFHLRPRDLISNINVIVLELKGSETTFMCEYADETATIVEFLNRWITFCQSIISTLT
Question: Which results are given for B1?
Answer: EC50 of pSTAT-5 induction in CTLL-2 cells (flow cytometry) [1]: 11.5 nM; EC50 (HH/CTLL-2): EC50 on HH cells (intermediate-affinity IL-2R) divided by EC50 on CTLL-2 cells (high-affinity IL-2R) [2]: 0.12 ratio; EC50 of pSTAT-5 induction in HH cells (flow cytometry) [3]: 1.36 nM; EC50 (HH): pSTAT-5 induction in HH cells (flow cytometry) [4]: 2 nM; EC50 (HH/CTLL-2): EC50 on HH cells (intermediate-affinity IL-2R) divided by EC50 on CTLL-2 cells (high-affinity IL-2R) [4]: 0.027 ratio; EC50 (CTLL-2): pSTAT-5 induction in CTLL-2 cells (flow cytometry) [5]: 74.2 nM

B2: IL-2 variant IL-2_#2 (F42W, L72K) (ligand)
chain: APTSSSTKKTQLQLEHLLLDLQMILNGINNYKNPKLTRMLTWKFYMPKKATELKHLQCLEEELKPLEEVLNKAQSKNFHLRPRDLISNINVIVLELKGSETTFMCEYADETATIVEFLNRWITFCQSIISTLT
Question: What does the source list for B2?
Answer: EC50 of pSTAT-5 induction in CTLL-2 cells (flow cytometry) [1]: 0.342 nM; EC50 (HH/CTLL-2): EC50 on HH cells (intermediate-affinity IL-2R) divided by EC50 on CTLL-2 cells (high-affinity IL-2R) [2]: 1.79 ratio; EC50 of pSTAT-5 induction in HH cells (flow cytometry) [3]: 0.612 nM

B3: IL-2 variant IL-2_#25 (A50I) (ligand)
chain: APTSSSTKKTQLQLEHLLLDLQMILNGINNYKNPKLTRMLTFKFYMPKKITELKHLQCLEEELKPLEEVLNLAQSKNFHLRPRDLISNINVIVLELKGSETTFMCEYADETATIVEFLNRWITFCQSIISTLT
Question: B3 was tested. Which “EC50 of pSTAT-5 induction in CTLL-2 cells (flow cytometry)” value [6] did it give?
Answer: The value was 0.00291 nM.

Question: And the “EC50 of pSTAT-5 induction in HH cells (flow cytometry)” value [7]?
Answer: Its value is 9.93 nM.

Like-named read-outs stand apart in the source and are kept apart here.
